Reference: the antibiotic and cytotoxicity screens of Wong et al. (2023)
The list shows a part of the results.

Legend:
HSkMC = human skeletal muscle cells; experiment: cytotoxicity call (relative viability < 0.9); details: 10 µM
HepG2 = experiment: cytotoxicity call (relative viability < 0.9); details: 10 µM
S. aureus RN4220 = experiment: growth inhibition call (relative growth <= 0.2); details: 50 µM

Row | SMILES | cytotoxicity call (HSkMC) | cytotoxicity call (HepG2) | growth inhibition call (S. aureus RN4220)
1 | COC(=O)CCCCCCC(=O)Nc1ccc([C@H]2O[C@@H](CSc3nc4ccccc4s3)C[C@H](c3ccccc3)O2)cc1 | inactive | inactive | inactive
2 | C[C@@H]1CCCCO[C@H](CN(C)Cc2ccc(C(F)(F)F)cc2)[C@H](C)CN([C@H](C)CO)C(=O)c2cc(NC(=O)Nc3ccc(C(F)(F)F)cc3)ccc2O1 | active | active | inactive
3 | C[N+]1(C)C2CCC1CC(OC(=O)C(O)c1ccccc1)C2.[Br-] (stereo not drawn) | inactive | inactive | inactive
4 | CC(C)NC(=O)N(C)C[C@H]1OCCCC[C@H](C)Oc2ccc(NS(=O)(=O)c3cn(C)cn3)cc2C(=O)N([C@@H](C)CO)C[C@H]1C | inactive | inactive | inactive
5 | O=C(/C=C/c1cccc(-c2cn(CC[C@@H]3OC(=O)[C@H](Cc4ccccc4)N4CC5=CC(=O)[C@H](C6CC6)[C@H]5[C@H]34)nn2)c1)NO | inactive | inactive | inactive
6 | CC(C)NC(=O)[C@@]1(C)c2ccccc2C(=O)N(Cc2ccc(OC(F)(F)F)cc2)[C@H]1c1ccc(CO)cc1 | inactive | inactive | inactive
7 | COc1ccc2c3c(n(c2c1)C)[C@H](CO)N(C[C@]13CN(C1)C(=O)Nc1cccc(c1)F)S(=O)(=O)C | inactive | inactive | inactive
8 | Cn1c(NCCN(CCO)CCCc2ccc([N+](=O)[O-])cc2)cc(=O)n(C)c1=O | inactive | inactive | inactive
9 | COc1ccc2c3c(n(c2c1)C)[C@H](CO)N(C[C@]13CN(C1)C(=O)CN1CCOCC1)C(=O)Nc1ccc(cc1)F | inactive | inactive | inactive
10 | COC(=O)[C@@H](NC(=O)c1cc(C)on1)C(C)C | inactive | inactive | inactive
11 | C[C@@H]1CCCCO[C@@H](CN(C)Cc2ccccc2)[C@H](C)CN([C@H](C)CO)C(=O)c2cc(NC(=O)c3ccncc3)ccc2O1 | inactive | inactive | inactive
12 | COCC#Cc1ccc2c(c1)O[C@@H](CN(C)Cc1ccccc1F)[C@@H](C)CN([C@H](C)CO)S2(=O)=O | inactive | inactive | inactive
13 | COc1ccc(S(=O)(=O)N(C)C[C@@H]2Oc3ccc(NC(=O)c4ccncc4)cc3CC(=O)N([C@H](C)CO)C[C@@H]2C)cc1 | inactive | inactive | inactive
14 | CC(C)NC(=O)N(C)C[C@@H]1Oc2c(NC(=O)C3CCOCC3)cccc2C(=O)N([C@H](C)CO)C[C@H]1C | inactive | inactive | inactive
15 | Cc1cccc(CN2CCN(C(c3ccccc3)c3ccc(Cl)cc3)CC2)c1.Cl.Cl (stereo not drawn) | inactive | inactive | inactive
16 | Cc1cc(C(=O)Nc2cccc3c2O[C@H](CN(C)Cc2ccc(C(=O)O)cc2)[C@@H](C)CN([C@@H](C)CO)C3=O)n(C)n1 | inactive | inactive | inactive
17 | Nc1ccc(-n2cc(CCC(=O)NO)nn2)cc1 | inactive | inactive | inactive
18 | O=C(O)c1ccc2c(ccc3nn(-c4ccc(/C=C/c5ccc(-n6nc7ccc8cc(C(=O)O)ccc8c7n6)cc5S(=O)(=O)O)c(S(=O)(=O)O)c4)nc32)c1 | inactive | inactive | inactive
19 | Cc1nc[nH]c1CN(C)[C@H](C)C(=O)N(C)C | inactive | inactive | inactive
20 | C[C@H]1CN([C@@H](C)CO)C(=O)Cc2cc(NC(=O)Nc3ccc4c(c3)OCO4)ccc2O[C@@H]1CN(C)Cc1ccc(Oc2ccccc2)cc1 | inactive | inactive | inactive
21 | C[C@@H]1CCCCO[C@H](CN(C)Cc2ccc(C(F)(F)F)cc2)[C@H](C)CN([C@@H](C)CO)C(=O)c2cc(NC(=O)CCC(F)(F)F)ccc2O1 | inactive | active | inactive
22 | CC(C)C#Cc1cnc2c(c1)C(=O)N([C@@H](C)CO)C[C@H](C)[C@@H](CN(C)C(=O)c1ccc3c(c1)OCO3)O2 | inactive | inactive | inactive
23 | C[C@@H]1CN([C@H](C)CO)C(=O)c2cc(NC(=O)Nc3ccc(F)cc3)ccc2O[C@@H](C)CCCCO[C@@H]1CN(C)CC1CCCCC1 | active | active | inactive
24 | COc1ccc2c3c([nH]c2c1)[C@@H](CO)N(C[C@]13CCN(CC1)Cc1ccccc1OC)C(=O)Nc1ccc(cc1)F | inactive | active | inactive
25 | COc1ccc(NC(=O)Nc2ccc3c(c2)C(=O)N([C@H](C)CO)C[C@@H](C)[C@H](CN(C)CC2CC2)OCCCC[C@@H](C)O3)cc1 | inactive | inactive | inactive
26 | C[C@@H]1CN([C@H](C)CO)C(=O)c2cc(NC(=O)CCCN(C)C)ccc2O[C@@H](C)CCCCO[C@@H]1CN(C)Cc1ccc(C(F)(F)F)cc1 | inactive | inactive | inactive
